From PubChem BioAssay AID588407 (The Scripps Research Institute Molecular Screening Center, 2011) come the findings set out here.

SMILES strings stand for the structures. A number of entries come with more than one value. This is not the full list of results. The source may hold further records. No rule for the calls is given here. Results that share an entry are repeated measurements across runs, samples, wells, individuals or studies. Records carry a tag for their origin. Letters hold for one entry only.

The target in the experiment is Mu-type opioid receptor (Homo sapiens) + Delta-type opioid receptor (Homo sapiens) (UniProt P35372+P41143). The experiment is described as follows: agonists of MOR-DOR heterodimerization, dose response, cell-based, luminescence (AID 588407).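 Also: potency of agonists raising the heterodimer signal.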 As to conditions: cells.
Chain of UniProt P35372 (P35372 whole entry, looked up): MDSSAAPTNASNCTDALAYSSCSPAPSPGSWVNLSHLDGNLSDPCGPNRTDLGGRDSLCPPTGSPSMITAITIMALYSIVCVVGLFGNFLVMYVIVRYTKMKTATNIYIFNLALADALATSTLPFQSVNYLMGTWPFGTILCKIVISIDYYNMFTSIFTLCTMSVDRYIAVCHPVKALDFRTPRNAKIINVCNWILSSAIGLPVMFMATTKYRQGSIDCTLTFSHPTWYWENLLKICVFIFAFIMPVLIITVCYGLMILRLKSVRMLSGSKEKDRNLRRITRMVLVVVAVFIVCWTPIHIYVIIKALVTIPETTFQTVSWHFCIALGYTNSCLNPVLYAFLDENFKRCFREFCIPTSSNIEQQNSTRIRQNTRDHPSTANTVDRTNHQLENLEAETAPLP
Chain of UniProt P35372 (P41143 whole entry, looked up): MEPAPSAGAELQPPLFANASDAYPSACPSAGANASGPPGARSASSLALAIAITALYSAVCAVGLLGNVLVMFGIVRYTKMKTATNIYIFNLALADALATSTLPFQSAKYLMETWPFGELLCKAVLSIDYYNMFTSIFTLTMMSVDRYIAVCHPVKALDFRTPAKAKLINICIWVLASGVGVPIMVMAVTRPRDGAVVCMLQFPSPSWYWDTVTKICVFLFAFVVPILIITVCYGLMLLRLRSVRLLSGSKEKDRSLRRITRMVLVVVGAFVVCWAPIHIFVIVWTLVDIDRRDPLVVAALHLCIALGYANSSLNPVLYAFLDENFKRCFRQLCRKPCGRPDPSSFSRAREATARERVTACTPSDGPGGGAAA

Take `CCC(COC(=O)c1cc(OC)c(OC)c(OC)c1)(c1ccccc1)N(C)C` (stereo unspecified): the EC50 result was “inactive [sample A] and 9.5 µM [sample B]”.
